Hit rate of the full screen: of about 310,000 compounds, about 14,000 (4.5%) showed an effect of 50% or more. Effects have a minus sign here. The list shows a part of the results.
What follows are compounds tested against human ether-à-go-go-related gene (hERG) potassium channel (human, UniProt Q12809) (assay: primary screen, population patch clamp on CHO cells stably expressing hERG).
Sequence of human ether-à-go-go-related gene (hERG) potassium channel (Q12809 whole entry, looked up): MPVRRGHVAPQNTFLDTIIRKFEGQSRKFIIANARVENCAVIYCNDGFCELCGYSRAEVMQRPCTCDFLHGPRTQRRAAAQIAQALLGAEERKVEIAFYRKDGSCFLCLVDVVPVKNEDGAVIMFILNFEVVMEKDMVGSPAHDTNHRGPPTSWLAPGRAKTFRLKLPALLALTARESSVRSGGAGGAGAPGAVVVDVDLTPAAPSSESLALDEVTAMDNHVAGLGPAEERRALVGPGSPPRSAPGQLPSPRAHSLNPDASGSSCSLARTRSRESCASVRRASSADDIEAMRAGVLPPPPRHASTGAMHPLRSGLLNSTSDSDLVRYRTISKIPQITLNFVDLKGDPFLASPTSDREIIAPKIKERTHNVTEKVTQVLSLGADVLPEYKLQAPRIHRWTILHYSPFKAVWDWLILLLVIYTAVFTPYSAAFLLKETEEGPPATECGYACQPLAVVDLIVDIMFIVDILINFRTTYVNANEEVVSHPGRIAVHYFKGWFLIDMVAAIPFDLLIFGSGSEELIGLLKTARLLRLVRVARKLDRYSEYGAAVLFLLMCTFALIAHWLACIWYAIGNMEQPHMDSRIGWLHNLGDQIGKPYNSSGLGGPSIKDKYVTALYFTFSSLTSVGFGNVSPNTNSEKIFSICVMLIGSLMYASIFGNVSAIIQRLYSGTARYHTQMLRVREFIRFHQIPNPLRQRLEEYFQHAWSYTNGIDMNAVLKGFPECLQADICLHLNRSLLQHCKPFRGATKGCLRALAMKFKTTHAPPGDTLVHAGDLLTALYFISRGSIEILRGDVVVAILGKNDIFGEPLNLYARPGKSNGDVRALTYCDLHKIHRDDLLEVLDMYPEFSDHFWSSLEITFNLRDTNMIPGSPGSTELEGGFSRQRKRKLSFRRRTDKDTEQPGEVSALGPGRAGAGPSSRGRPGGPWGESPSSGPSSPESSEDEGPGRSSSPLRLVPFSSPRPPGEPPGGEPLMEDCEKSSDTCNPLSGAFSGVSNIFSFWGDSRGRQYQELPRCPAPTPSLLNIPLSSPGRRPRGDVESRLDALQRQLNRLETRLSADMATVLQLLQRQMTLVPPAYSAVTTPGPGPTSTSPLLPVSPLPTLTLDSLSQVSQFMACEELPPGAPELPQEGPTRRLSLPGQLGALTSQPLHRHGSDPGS
With `COc1ccccc1N1CCN(C(c2cccs2)C(C)NS(=O)(=O)c2ccccc2)CC1` (stereo not drawn) the “hERG current change (%, negative = inhibition) at 10uM” value was -2.4%.
In the case of `O=C(CCc1ccccc1)OCC(=O)c1ccc([N+](=O)[O-])cc1`, the “hERG current change (%, negative = inhibition) at 10uM” value is reported as 20.6%.
In the case of `O=C(OCCN=C1NS(=O)(=O)c2ccccc21)c1ccncc1`, the “hERG current change (%, negative = inhibition) at 10uM” value is reported as -1.44%.
For `CC(Oc1ccccc1Cl)C(=O)N(Cc1cccs1)C1CCS(=O)(=O)C1` (stereo not drawn), the “hERG current change (%, negative = inhibition) at 10uM” value was -31.7%.
In the case of `O=C(Nc1nnc(CCN2CCCCC2)s1)C1CCCCC1`, the “hERG current change (%, negative = inhibition) at 10uM” value is reported as -7.27%.
With `CN(C)c1ccc(-c2nnc(SCC3CCCO3)n2C)cc1` (stereo not drawn) the “hERG current change (%, negative = inhibition) at 10uM” value was 5.24%.
In the case of `O=C(O)C1Cc2ccccc2CN1S(=O)(=O)c1ccccc1` (stereo not drawn), the “hERG current change (%, negative = inhibition) at 10uM” value is reported as 9.88%.
With `Cc1cccc(-n2c(/C=C/c3ccccn3)nc3ccccc3c2=O)c1` the “hERG current change (%, negative = inhibition) at 10uM” value was 15.1%.
For `COC(=O)c1ccc2c(=O)n(Cc3ccc4c(c3)OCO4)c(=S)[nH]c2c1`, the “hERG current change (%, negative = inhibition) at 10uM” value was 16.3%.
`O=c1cccc2n1CC1CC2CN(C(c2ccccc2)c2sc3ncnn3c2O)C1` (stereo not drawn) was tested, and the “hERG current change (%, negative = inhibition) at 10uM” value was 15.1%.
With `N#C/C(C(=O)c1ccccc1)=C1/CCCCCN1` the “hERG current change (%, negative = inhibition) at 10uM” value was 14.1%.
With `COc1ccc(-c2nc(CN(C)C(C)c3ccon3)c(C)o2)c(C)c1C` (stereo not drawn) the “hERG current change (%, negative = inhibition) at 10uM” value was 20.1%.
`O=C(OCc1ccc(C(=O)c2ccccc2)cc1)c1cccc(-c2nnc(-c3ccccc3)o2)c1` was tested, and the “hERG current change (%, negative = inhibition) at 10uM” value was -0.909%.
`Cc1oc(-c2ccc(Cl)cc2)nc1CN1CCCC(C(=O)N2CCN(C(=O)c3ccco3)CC2)C1` (stereo not drawn) was tested, and the “hERG current change (%, negative = inhibition) at 10uM” value was -89.5%.
`CCOC(=O)[C@@H](C)NS(=O)(=O)N(Cc1ccccc1)[C@H](C(=O)OC)C(C)C` was tested, and the “hERG current change (%, negative = inhibition) at 10uM” value was -3.86%.
With `CC12C(=O)N(c3cccc(OC(=O)c4ccco4)c3)C(=O)C1C1c3ccccc3C2c2ccccc21` (stereo not drawn) the “hERG current change (%, negative = inhibition) at 10uM” value was 7.85%.
In the case of `CCOC(=O)C1CCN(C(=S)Nc2ccccc2)CC1`, the “hERG current change (%, negative = inhibition) at 10uM” value is reported as 13.6%.
`CCc1ccc2[nH]c(=O)c(CN(CCO)C(=O)NCc3ccccc3)cc2c1` was tested, and the “hERG current change (%, negative = inhibition) at 10uM” value was 3.64%.
With `O=C(Nc1cc(Cl)ccc1Cl)C1CC(=O)N(c2ccc(Br)cc2)C1` (stereo not drawn) the “hERG current change (%, negative = inhibition) at 10uM” value was 36.4%.
With `Cc1cc(C(=O)N/N=C/c2ccc([N+](=O)[O-])s2)c2ccccc2n1` the “hERG current change (%, negative = inhibition) at 10uM” value was 10.2%.
For `CCOC(=O)CCCCNC(=O)Nc1ccccc1`, the “hERG current change (%, negative = inhibition) at 10uM” value was 38.2%.
`CS(=O)(=O)N(CC(=O)NCc1ccco1)c1ccc2c(c1)OCO2` was tested, and the “hERG current change (%, negative = inhibition) at 10uM” value was -11.9%.
In the case of `COc1ccc(CC(=O)N[C@@H](CCSC)c2nc3ccccc3[nH]2)cc1`, the “hERG current change (%, negative = inhibition) at 10uM” value is reported as 0.782%.
With `O=C(CN1CCN(C/C=C/c2ccccc2)CC1)Nc1ccc(F)cc1F` the “hERG current change (%, negative = inhibition) at 10uM” value was -78.1%.
For `CCn1nccc1C(=O)Nc1nc2ccccc2n1CCN1CCCCC1`, the “hERG current change (%, negative = inhibition) at 10uM” value was -39.8%.
`COc1ccc(O)c(CNn2c(-c3ccc(Br)cc3)nc3ccccc3c2=O)c1` was tested, and the “hERG current change (%, negative = inhibition) at 10uM” value was -3.24%.
For `Cc1cc(OCCn2ccnc2)cc(C)c1Cl`, the “hERG current change (%, negative = inhibition) at 10uM” value was 6.52%.
With `CC1CCCCN1C(=O)COC(=O)c1ccc2ccccc2n1` (stereo not drawn) the “hERG current change (%, negative = inhibition) at 10uM” value was 10%.
With `CC(C)N(Cc1nccn1C)C(=O)c1cc(COc2ccc(-n3cncn3)cc2)on1` the “hERG current change (%, negative = inhibition) at 10uM” value was -51.5%.
With `O=C(O)CC/C(=N\NC(=O)CNC(=O)/C=C/c1ccccc1)c1ccccc1` the “hERG current change (%, negative = inhibition) at 10uM” value was 12.1%.
With `O=C(Nc1ccccc1)C1=C(O)CC(c2ccoc2)CC1=Nc1ccccc1` (stereo not drawn) the “hERG current change (%, negative = inhibition) at 10uM” value was 15%.
`CCCc1cc(C(=O)Nc2cccnc2Cl)no1` was tested, and the “hERG current change (%, negative = inhibition) at 10uM” value was 11.5%.
`O=c1cc(-c2ccc([N+](=O)[O-])cc2)c2ccc(O)cc2o1` was tested, and the “hERG current change (%, negative = inhibition) at 10uM” value was 1.63%.
`Cc1cc(NC(=O)c2cccc(S(=O)(=O)N3CCCC3)c2)no1` was tested, and the “hERG current change (%, negative = inhibition) at 10uM” value was 5.68%.
`CCCCS(=O)(=O)c1sc2nc(C)cc(C)c2c1N` was tested, and the “hERG current change (%, negative = inhibition) at 10uM” value was 4.78%.
With `O=C(Nc1nc(-c2ccccc2)cs1)Nc1ccc(F)cc1F` the “hERG current change (%, negative = inhibition) at 10uM” value was 11.7%.
For `COc1ccc(C(=O)NC(=S)NCc2cccnc2)cc1Br`, the “hERG current change (%, negative = inhibition) at 10uM” value was -23.9%.
`Cc1ccc(NNC(=O)c2ccno2)c(C)c1` was tested, and the “hERG current change (%, negative = inhibition) at 10uM” value was 11.1%.
For `COC(=O)C(Cc1ccc(O)cc1)NC(=O)c1ccc2c(c1)OCCO2` (stereo not drawn), the “hERG current change (%, negative = inhibition) at 10uM” value was 21.4%.
With `CC(=O)N1N=C(c2cccc([N+](=O)[O-])c2)OC1(C)c1cccs1` (stereo not drawn) the “hERG current change (%, negative = inhibition) at 10uM” value was -36.5%.
`Cc1ccc(N(C(=O)CCC(=O)Nc2cc(C)on2)C(C(=O)NC2CCCC2)c2cccs2)cc1` (stereo not drawn) was tested, and the “hERG current change (%, negative = inhibition) at 10uM” value was -37.7%.
For `Cc1c(NC(=O)Nc2cccs2)cccc1[N+](=O)[O-]`, the “hERG current change (%, negative = inhibition) at 10uM” value was 22.4%.
In the case of `Cc1cc(C)cc(NC(=O)Cn2cc3c(n2)CCCCC3)c1`, the “hERG current change (%, negative = inhibition) at 10uM” value is reported as -6.38%.
`CCS(=O)(=O)N1Cc2ccccc2CC1C(=O)Nc1nnc(SCc2c(Cl)cccc2Cl)s1` (stereo not drawn) was tested, and the “hERG current change (%, negative = inhibition) at 10uM” value was 18.7%.
For `COc1cc(/C=C2/C(=N)N3N=C(CC(=O)N4CCOCC4)SC3=NC2=O)ccc1OCc1ccc(F)cc1`, the “hERG current change (%, negative = inhibition) at 10uM” value was 16.1%.
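Note: peak tail current of the secondary pulse compared with the same well before compound.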
